{"source": "the RNAGym collection of RNA variant scans (doi:10.7554/elife.90254)", "parents": {"B1": {"name": "LINE1-mini (parent)", "chain": "GGCAGAGCUCAACACAGCGUGGCAAAGUGGCUGUGGCUAGACUGCC"}}, "note": "Read counts are not given, so values of variants with three or more changes are uncertain.", "data": [{"variants_of": "B1", "assay": "self-cleavage, relative activity (ratio to wild type); higher = more cleavage; in vitro, sequencing; the parent is a self-cleaving ribozyme", "values": [{"variant": "GGAAGAGCUCAACAAAGCGUGGCGAAGUGGCUGUUGCUAGACUGCC", "note": "[C3A C15A A24G G35U]", "self-cleavage": 0.29}, {"variant": "GGCAGCGCUCAACACAGCGUGGCAACGUCGCUGUCGCUAGACUGCC", "note": "[A6C A26C G29C G35C]", "self-cleavage": 0.05}, {"variant": "GGCAGAGCUCAACACAACGGGGCAAUGUGGCUGUGGCUAGAAUGCC", "note": "[G17A U20G A26U C42A]", "self-cleavage": 0}, {"variant": "GGCAAAGCUCAACGCAGCGUGGCAAUGUGCCUGUGGCUAGACUGCC", "note": "[G5A A14G A26U G30C]", "self-cleavage": 0.15}, {"variant": "GGCAGAACUCUACACAGCGUGCCAAAGUGCCGGUGGCUAGACUGCC", "note": "[G7A A11U G22C G30C U32G]", "self-cleavage": 0.02}, {"variant": "GGCAGCGCUCAACACAGCGGGGAAAAGUGGCUGCGCCUAGACUGCC", "note": "[A6C U20G C23A U34C G36C]", "self-cleavage": 0.01}, {"variant": "GUCAGAGCUCAACACAGCGUGGGCAAGUGGCUGUGGCUAGACUGCC", "note": "[G2U C23G A24C]", "self-cleavage": 0.08}, {"variant": "GGCAGAGCUCAACACAGCGUGGCAAAUUGGCUGUAGCUAGACUCCU", "note": "[G27U G35A G44C C46U]", "self-cleavage": 0.03}, {"variant": "GGCAGGGUCAAACACAGCGUGGCAAAGCGGCUUUGGCUAGACUGCC", "note": "[A6G C8U U9C C10A U28C G33U]", "self-cleavage": 0.09}, {"variant": "GGCAGAGCUCAAAAGAGCGUGCCAAAGUGGCUGUGGCUAGACUGCC", "note": "[C13A C15G G22C]", "self-cleavage": 0.03}, {"variant": "AGCAGAGCUAAACACAGCGCGGCAAAGUGGCUGUGGCUAGACUGCC", "note": "[G1A C10A U20C]", "self-cleavage": 0.04}, {"variant": "GGCAGAGUUCAACACAGCGUGGCAAAGGGGCUGUGGCUAGACUGAC", "note": "[C8U U28G C45A]", "self-cleavage": 0.13}, {"variant": "CGCAGAGCUCAACACAGCGUGGCAAAGUGGCUGUGGAUCGACAGCC", "note": "[G1C C37A A39C U43A]", "self-cleavage": 0.04}, {"variant": "GUAAGAGCUCAACUCAGAGUGGCAAUGUGGCAAUGGGUAGACUGCA", "note": "[G2U C3A A14U C18A A26U U32A G33A C37G C46A]", "self-cleavage": 0.03}, {"variant": "GGCAGACCUCAACACAGCGUGGCAAAGUGGCUGUGGCUUAACUGCG", "note": "[G7C A39U G40A C46G]", "self-cleavage": 0.04}, {"variant": "GCCAGAGCCCAACACCGCGUGGCAAGGAGGCUGUGGCUAUACUGCC", "note": "[G2C U9C A16C A26G U28A G40U]", "self-cleavage": 0}, {"variant": "GGCAGAGCUCAACACAGCGUGGCAAAGUGGCUGUGGAUUGUCUGCC", "note": "[C37A A39U A41U]", "self-cleavage": 0.11}, {"variant": "GGCAGAGCUCAACUCAGCGUGGCAAAGUGGCUGUAGCUAGAGUGCC", "note": "[A14U G35A C42G]", "self-cleavage": 0}, {"variant": "GGCAGAGCUCUACACAGCGUGGCAAAGUGGAUGUGGCUAGGCUGCC", "note": "[A11U C31A A41G]", "self-cleavage": 0.01}, {"variant": "GCCACAGCUCAACACAGCGUGGCCAAGUGGCUGUGGCUAGACUGCC", "note": "[G2C G5C A24C]", "self-cleavage": 0.01}, {"variant": "GGCAGAGCUCAACAUAGCGUGGCAAAGUGGCUGUGGCUAGAGUCUC", "note": "[C15U C42G G44C C45U]", "self-cleavage": 0.06}, {"variant": "GGCAGAUAUCAACAAAGCGUGGCAAAGUGUCUGUGGCUAGACUGCC", "note": "[G7U C8A C15A G30U]", "self-cleavage": 0.39}, {"variant": "GGCAGCGCUCAACAGAGCGUGGCAAGGUGGCUGUGGCUAGACUGCC", "note": "[A6C C15G A26G]", "self-cleavage": 0.04}, {"variant": "GGCAGUGCUCAACACAGCGUGGCAAAUUGGCUGUGGCUAGACUACC", "note": "[A6U G27U G44A]", "self-cleavage": 0.56}, {"variant": "GAAAGAGCUCAACACAGGGUGGCAAAGUGGCUGUGGCUAGAUUGCC", "note": "[G2A C3A C18G C42U]", "self-cleavage": 0.87}, {"variant": "GGCAGAGCUUAACACAGCGUGGCAAAGUGGCAGUGUCUAGACUGCC", "note": "[C10U U32A G36U]", "self-cleavage": 0.04}, {"variant": "GGCAGAGCACAACACAGCGUGGCAAAGUGGCUGGCGCUAGACUGCC", "note": "[U9A U34G G35C]", "self-cleavage": 0.06}, {"variant": "GGCAGAGCUCAAGACAGCGUGGCAAAGUAGCUGUGGCUAGAGUGCC", "note": "[C13G G29A C42G]", "self-cleavage": 0.02}, {"variant": "GGCAUAGCUCAACACGGCGUGCCAAAGAUGCUGUGGCUAGACUGCC", "note": "[G5U A16G G22C U28A G29U]", "self-cleavage": 0}, {"variant": "GGUAGAGAUCAACACAGCUUGGCCAAGUGGCUCUGGCUAGACUGCC", "note": "[C3U C8A G19U A24C G33C]", "self-cleavage": 0.43}, {"variant": "GGCAGAGCUUAACACAGCGUGGCAAAGUGGCUGUGGCUAGACUUCU", "note": "[C10U G44U C46U]", "self-cleavage": 0.03}, {"variant": "GGCAGAGCUCAAAAAAGCGUGGCACAGUGGCUGUGGCUAGACUGCC", "note": "[C13A C15A A25C]", "self-cleavage": 0.08}, {"variant": "GGCAGAGCUCAACAAAUCGUGGCAAAGUGGAUGUGGCUAGACUGCC", "note": "[C15A G17U C31A]", "self-cleavage": 0.11}, {"variant": "GGCAUAGCUCAACACAGCGUGGCAAAGUGGCUGUGUCUAGUCUGCC", "note": "[G5U G36U A41U]", "self-cleavage": 0.03}, {"variant": "GGCAGAGAUCAACACAGCGUGUCAAAUUGGCUGUGGCAAGACUGUC", "note": "[C8A G22U G27U U38A C45U]", "self-cleavage": 0.07}, {"variant": "GGCAGAGCUUAACACAGCGUGGGAAAGUGGCUGUGACUAGACUGCA", "note": "[C10U C23G G36A C46A]", "self-cleavage": 0.05}, {"variant": "GGCAGAGCUAAACACAUCGUGGCAAAGUGGCUUUGGCUAGACUGCC", "note": "[C10A G17U G33U]", "self-cleavage": 0.01}, {"variant": "GGCAGAGCUCUACACAGCGCGGCAAGGUUGCUGUGGCUAGACUGCC", "note": "[A11U U20C A26G G29U]", "self-cleavage": 0.01}, {"variant": "GGCAGAGCUCACCACAGCGAGGCAAAGUCCCUGUGGCUAGACUGUG", "note": "[A12C U20A G29C G30C C45U C46G]", "self-cleavage": 0.01}, {"variant": "GGCGGAGCUCAACACAGCGUGGCAAAUUGGAUGUGGCUAGACUGCC", "note": "[A4G G27U C31A]", "self-cleavage": 0.21}, {"variant": "GGGUGAGCUCAACACAGCGUAGCAAACUGGCUGUGGCUAGACUGCC", "note": "[C3G A4U G21A G27C]", "self-cleavage": 0.25}, {"variant": "GGCUGAGAUCAACACAGCGUGGUAAAGUGGCGGUGGCUAGACUGCA", "note": "[A4U C8A C23U U32G C46A]", "self-cleavage": 0.17}, {"variant": "GGCAUAGCUCAAAACAGCGUGGCAAAGUGGCUAUGGGUAGACUGCC", "note": "[G5U C13A G33A C37G]", "self-cleavage": 0.03}, {"variant": "GGAAGAGCUCAACACAGCGUGGUAAGGUGGCUGUGGCUAGACUGCC", "note": "[C3A C23U A26G]", "self-cleavage": 0.4}, {"variant": "GGGAGUGCUCAACACAACGUGGCAAAGUGGCUGUGGCUAGACUGCC", "note": "[C3G A6U G17A]", "self-cleavage": 0.06}, {"variant": "GGCAGAGCUCAACAAAGGGUGGCAAAGUGGCUGUGCCUAGACUGCC", "note": "[C15A C18G G36C]", "self-cleavage": 0.02}, {"variant": "GGCAGAGCUCAACACAGCGUGCCAAAGUGGCUGUGGCUAGGCUACC", "note": "[G22C A41G G44A]", "self-cleavage": 0.03}, {"variant": "GGCAGAGCUCAUCACAGAGUUGCAAAGUGGCUGUGGCUAGACUACC", "note": "[A12U C18A G21U G44A]", "self-cleavage": 0.05}, {"variant": "GGCAGUGCUCAACACAGCGUGGCAAAUUGGCUGGGUCUAGACUGCC", "note": "[A6U G27U U34G G36U]", "self-cleavage": 0.05}, {"variant": "GGCAGAGCUCAACACAGCAGGGCAAAGUGGCUGUGGUUAGACUGCC", "note": "[G19A U20G C37U]", "self-cleavage": 0.04}, {"variant": "GGCACAGCUCAACACAGCGUGCCAAACUGGCUGUGGCUAGACUGCC", "note": "[G5C G22C G27C]", "self-cleavage": 0.05}, {"variant": "GGCAGAGCUCAGCACAGCGUGGCAAAGUUGCCGUAGCUAGACUGCC", "note": "[A12G G29U U32C G35A]", "self-cleavage": 0.14}, {"variant": "GGCAAAGCAAAAGACAGCGUGGCAAAGUGGCUGCGACUAGACUGCC", "note": "[G5A U9A C10A C13G U34C G36A]", "self-cleavage": 0.02}, {"variant": "GGCAGAGCUCAGCACAGCGUGGCAAAGUAGCCGUGGCUAGACUGAC", "note": "[A12G G29A U32C C45A]", "self-cleavage": 0.05}, {"variant": "GGCAGAGCUCAACACAGCGUGGCAAAGAGGCUGUGGCUGGACUGCU", "note": "[U28A A39G C46U]", "self-cleavage": 0.06}, {"variant": "GGCUGAGGUCAACAGUGCGUGGCAAAGUGGCUGUGGCUAGACUGCC", "note": "[A4U C8G C15G A16U]", "self-cleavage": 0.03}]}]}
